In the supplement of paper PMC3334620:
Whole data set: some 33,000 sequences, median “E-score (-0.5 to 0.5)” near -0.056, cut for the highest 2% near 0.38. The list shows a part of the results.

Each sequence was assayed against Stb4 (UniProt P50104) (assay: PBM E-score (8-mer binding enrichment) (E-score (-0.5 to 0.5)); higher = stronger / more preferred TF binding; most listed sequences are background and not binding sites). Details: protein concentration: 200 nM; construct: GST-DNA-binding domain.
How it was run: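 E-scores (a modified Wilcoxon-Mann-Whitney statistic) were assigned by the Universal PBM Analysis Suite to every ungapped eight-base word pooled with its reverse complement. The input came from universal all-10-mer Agilent arrays made double-stranded by primer extension and probed with GST-tagged yeast transcription factors at about 100-200 nM. Fluorescent anti-GST detected bound protein, and masliner normalised the scans.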

Row | Sequence | PBM E-score
1 | AACTCATT | -0.022
2 | CATGCATG | -0.305
3 | AGTGGCCA | -0.252
4 | AGTACCGG | 0.148
5 | AGAATACC | -0.0418
6 | CTAAGTAG | -0.288
7 | GAGGTCGC | 0.00721
8 | CGAGACTC | 0.176
9 | GACCGGGC | 0.0885
10 | TAACCCTA | -0.225
11 | GCGTAGCA | -0.105
12 | ACCGCCGT | 0.0269
13 | GCTCCCCA | -0.311
14 | CTTGGGCA | -0.0924
15 | ATACGTAT | -0.123
16 | AACGATTA | -0.0555
17 | ATCGGCGA | 0.226
18 | ATAGATTC | -0.0305
19 | ACCCTGCA | -0.0213
20 | ATGGCACG | -0.00398
21 | CAACATGG | -0.145
22 | GGGACGTA | 0.0138
23 | AAAAGTGT | -0.256
24 | AATTACCA | 0.0104
25 | GAATCGAC | 0.157

Row | Sequence | PBM E-score
26 | CTAACCTA | -0.033
27 | GAGACTGA | -0.0651
28 | CGCTTACA | -0.127
29 | GCCCATAA | 0.0152
30 | CTGTAGCC | -0.0212
31 | TGTAGCAA | 0.169
32 | GCTCACCA | -0.267
33 | GGGCAGGA | -0.0499
34 | AAGCTTCC | 0.161
35 | ATTATGTC | -0.123
36 | GGAGATCC | 0.115
37 | TTGCAAAA | -0.0544
38 | AATGTCTA | -0.202
39 | CACCGACC | 0.149
40 | AGACCGCA | -0.12
41 | ACTGCGAT | 0.0235
42 | AATGTTAA | 0.109
43 | CAAGCAAG | -0.146
44 | CATTTGGA | 0.0908
45 | AGAGTTCA | -0.313
46 | CGGGGGGA | 0.0522
47 | GACCCGTC | 0.143
48 | AACATATA | -0.0109
49 | AGGGCTGG | -0.147
50 | CTAAGTTC | 0.0377

Row | Sequence | PBM E-score
51 | AAGGGTGC | -0.16
52 | TAGTCTCA | -0.111
53 | ACCCCACA | -0.123
54 | CATTTCCG | 0.421
55 | ACCCAGAG | -0.234
56 | CCCGCCAG | 0.0645
57 | CTACGACA | -0.162
58 | CGTTAGGC | -0.151
59 | CAAAAAGA | -0.0408
60 | AACCTACT | 0.013
61 | CTCGGAGC | 0.395
62 | AGCTCCAA | -0.303
63 | GGCCTCGA | 0.0129
64 | CCTGGCAA | -0.145
65 | GTCACTAA | -0.219
66 | ATTACCGC | 0.208
67 | TCAAGGGA | 0.0219
68 | AGGCGCGA | -0.104
69 | GCTTCCCC | -0.0394
70 | ATCAACCC | 0.185
71 | AATTCACA | -0.132
72 | CAACGTTA | 0.00874
73 | GACGGGGC | -0.138
74 | AATAAGCG | -0.155
75 | CCCGTAGC | 0.00168

Row | Sequence | PBM E-score
76 | CTACACAC | -0.077
77 | CATGATTC | -0.131
78 | ACACAACC | -0.0108
79 | GTCAGAAA | -0.203
80 | AATAAAAC | -0.0373
81 | GGCAAGTA | 0.0793
82 | ATAATGGA | -0.0765
83 | CGTGCAGC | -0.0683
84 | ACCCATTC | -0.0756
85 | GGGGGCCA | 0.0783
86 | ATTACTAA | -0.126
87 | ACATGCTG | -0.285
88 | ATACTATG | -0.00557
89 | CGAAGTGC | 0.0604
90 | GTATTCCA | 0.00919
91 | TTACTAAA | -0.12
92 | CCTAGGCG | -0.217
93 | GTTTGAAA | -0.0579
94 | ACAATGTG | -0.195
95 | GCCACATA | -0.134
96 | CGCTTACC | 0.106
97 | ACATGCGT | -0.242
98 | CCTTAACG | 0.219
99 | CACCACCA | -0.0793
100 | AAATGCGG | 0.307

Row | Sequence | PBM E-score
101 | GCGCATTA | 0.00939
102 | AGATCTTA | -0.23
103 | GTTACTCA | 0.0396
104 | CTTGCGCA | -0.168
105 | CGGGATGC | 0.235
106 | CGTGATGC | 0.0274
107 | CCGACGGC | 0.339
108 | CGACGGAC | 0.148
109 | CCATTGGA | -0.213
110 | GATGTGTA | 0.0612
111 | ATCAAGCG | -0.0847
112 | CATTTCGC | 0.00468
113 | CTTTGCGC | -0.114
114 | AAAATGAA | -0.103
115 | ATCATCTG | 0.135
116 | ACCATTTG | -0.0118
117 | AAGATTTC | 0.0611
118 | TCAGACCA | -0.213
119 | AGCTTGAA | -0.171
120 | GAACTAAA | 0.158
121 | CGTGTCAA | -0.235
122 | CAGTCCCG | 0.257
123 | GCGATTAA | 0.0514
124 | AGTAGCTG | -0.221
125 | AACTATAT | -0.0631

Row | Sequence | PBM E-score
126 | GAGGCGTA | -0.0236
127 | CGTGCTAG | -0.16
128 | ATTTTACC | 0.238
129 | CGCTTCCA | -0.0326
130 | GTTTGGAA | -0.152
131 | ATAGGCGG | 0.186
132 | GGACAGAC | -0.0236
133 | CGCGACAC | -0.00733
134 | AGTGCGTA | -0.145
135 | ACCACGTA | -0.33
136 | GAAGGATC | 0.0415
137 | CGAGGAAG | 0.13
138 | CAATACCG | 0.134
139 | CGTGAGCA | -0.0397
140 | GACAGTGC | -0.0115
141 | ACTTCTCA | -0.289
142 | CCTTATGA | -0.155
143 | CCTTTCAG | -0.197
144 | GGAGCGCA | -0.065
145 | CAAGTTAC | 0.0131
146 | ATGTGGAA | -0.079
147 | GGAATAAC | 0.298
148 | CTGGTTAA | 0.0161
149 | CCTCTTAG | -0.0404
150 | CAACTGAG | -0.0761

Row | Sequence | PBM E-score
151 | CGGTCAAC | 0.172
152 | GACAACCA | -0.0624
153 | ACTTCAGA | 0.00297
154 | TAGCGCCA | -0.319
155 | AGACGCCG | 0.14
156 | GAAGCCGA | 0.401
157 | TAGGGATA | -0.1
158 | GGCATCGA | -0.166
159 | CGGCCCAC | 0.126
160 | CCCTCCGC | 0.0931
161 | AATACACA | -0.144
162 | GAGAAACC | 0.107
163 | ACCTATGG | -0.0696
164 | CTATCCCA | -0.135
165 | AGACGAGG | -0.152
166 | CCTCCTTA | -0.227
167 | AGTAATTA | -0.25
168 | ATAACGCC | 0.0163
169 | ACTGTTCG | 0.0494
170 | AACTCTTC | -0.165
171 | TAAACGTA | -0.249
172 | ATCGCGTA | -0.195
